# Data: PubChem BioAssay AID540317 (National Center for Advancing Translational Sciences (NCATS), 2011)
# The whole screen tested about 390,000 compounds, of which about 2,200 (0.56%) were called active. The shares of active, inactive and inconclusive entries below differ from those in the screen. Calls follow the shape of the dose curve; as a rule, active = well fitted inhibition curve with a large enough effect; inconclusive = small, poorly fitted or top-dose-only effect; inactive = no such curve, though single readings can be large or run the other way. Where the call is inconclusive, the potency comes from a doubtful curve fit.
# Biological target: Chromobox protein homolog 1 (Homo sapiens) (UniProt P83916)
# UniProt P83916, sequence (P83916 whole entry, looked up): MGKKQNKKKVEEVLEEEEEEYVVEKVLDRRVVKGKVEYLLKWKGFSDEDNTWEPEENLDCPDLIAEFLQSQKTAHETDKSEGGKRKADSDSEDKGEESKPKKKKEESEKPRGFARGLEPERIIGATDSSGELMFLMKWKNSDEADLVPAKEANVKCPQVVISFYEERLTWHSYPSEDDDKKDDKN
# Experiment: HTS for Inhibitors of HP1-beta Chromodomain Interactions with Methylated Histone Tails; also: nearly all actives have a fitted effect of over 70% in size
# Details: AlphaScreen HP1-beta / biotin-H3K9me3 peptide binding; series mostly up to 114 µM; activity change, negative = inhibition: at the top concentration
# Outline: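 AlphaScreen: HP1-beta (50 nM) preformed 30 min with biotin-H3(1-18)K9me3 peptide (50 nM) in PBS pH 7.4, 0.01% Tween-20. Compound added for 30 min at RT, then streptavidin donor/nickel chelate acceptor beads (10 ug/mL) for 30 min.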
# Potency is read from the fitted curve at half-maximal effect; tags tell the direction and shape of the fitted curve.
SMILES,Potency,"activity change, negative = inhibition"
C=C(C)C(=O)Nc1cccc(C2=NOC3(C2)C[C@@H](C(N)=O)N(C(=O)/C(C)=C/C)C3)c1 (some centres undefined),active: 3.55 µM,
COc1ccc(-c2csc(C(C#N)=C(O)CSc3nccn3C)n2)cc1OC,"inconclusive: 44.7 µM [inhibitor, partial curve]",
N#C/C(=C/c1ccc(N2CCCCC2)o1)c1cccc(F)c1,"inconclusive: 89.1 µM [inhibitor, partial curve, poor fit]",
O=C(c1ccco1)N(Cc1cccc(F)c1)C1CCS(=O)(=O)C1 (centres undefined),,inactive: 23.3%
CCC(C)N1CCN(C(=O)C2CCN(S(=O)(=O)c3c(C)noc3/C=C/c3ccco3)CC2)CC1 (centres undefined),,inactive: 2.21%
Clc1cccc(Cl)c1CNc1ccc(N2CCCC2)cc1,active: 17.8 µM,
O=C(NCc1ccco1)c1c2c(nc3ccccc13)CCC2,"inconclusive: 5.62 µM [inhibitor, full curve, poor fit]",
CNC(=O)NC(=O)CSc1ncc(C(F)(F)F)cc1Cl,"inconclusive: 6.31 µM [inhibitor, full curve, poor fit]",
CC1(C)CC(N2CCN(C(c3ccccc3)c3ccccc3)CC2)=CC(=[N+]2CCCCC2)C1,"inconclusive: 31.6 µM [inhibitor, partial curve, poor fit]",
CCN1/C(=C/c2ccc3cc(C)cc(C)c3[n+]2CC)Sc2cc(C)ccc21,"inconclusive: 56.2 µM [inhibitor, single point]",
CCC1CN(S(=O)(=O)c2ccc3c(c2)NC(=O)CC(=O)N3)c2cc(Cl)ccc2O1 (centres undefined),inactive,
COc1ccccc1N1CCN(C(=O)c2cc(-c3ccc(F)cc3)[nH]c2C)CC1,"inconclusive: 50.1 µM [inhibitor, partial curve, poor fit]",
CCCCNCCOCCOc1ccc(F)cc1,"inconclusive: 15.8 µM [inhibitor, full curve]",
O=C(Nc1ccon1)C(Sc1ccccc1)c1ccccc1 (centres undefined),,inactive: 16.8%
COc1ccc(C)cc1NC1(c2ccccc2)C(=O)c2ccccc2C1=O,"inconclusive: 35.5 µM [inhibitor, partial curve]",
COc1cccc(/C=C/C(=C2/C(=O)N(c3ccccc3)N=C2C)c2ccc(C)cc2)c1OC,"inconclusive: 2.82 µM [inhibitor, full curve, poor fit]",
Cc1ccc(C(=O)N2CCN(c3ccc([N+](=O)[O-])cc3-n3cccc3)CC2)cc1,"inconclusive: 50.1 µM [inhibitor, partial curve]",
COc1ccc(-n2ccn3c(CC(C)(C)CC(=O)O)nnc3c2=O)cc1,,inactive: 24.1%
CCC(Sc1nc2nccnc2c(=O)n1Cc1ccc(Cl)cc1)C(=O)NC1CCCCC1 (centres undefined),,inactive: 28%
